Experimental data as given in PubChem BioAssay AID686978 (National Center for Advancing Translational Sciences (NCATS), 2013).
Hit rate of the full screen: of about 420,000 compounds, about 64,000 (15%) were called active. The shares of active, inactive and inconclusive entries below differ from those in the screen. The call rests on the fitted dose curve; in most records, active means well fitted inhibition curve with a large enough effect; inconclusive means small, poorly fitted or top-dose-only effect; inactive means flat fitted curve, though single readings scatter. Potencies of inconclusive entries are left out as doubtful fits.

Assay: qHTS for Inhibitors of human tyrosyl-DNA phosphodiesterase 1 (TDP1): qHTS in cells in absence of CPT; further: nearly all actives have a fitted effect of over 55% in size
Settings: DT40 Tdp1-/- hTDP1 cells, no CPT, ATP luminescence, 48 h; activity change, negative = growth inhibition: at 46.2 µM (top of the series)
Method in brief: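 Seeded 400 DT40-hTDP1 cells/well (vehicle DMSO, no 20 nM CPT); pinned compounds; ≥48 hr at 37 °C; CellTiter-Glo luminescence as viability measure.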
On the % scale 0 is the no-effect control and ±100 the full control effect; potency means the concentration at half of the fitted maximal effect; tags describe the fitted curve by direction and shape.

SMILES	Potency	activity change, negative = growth inhibition
COc1ccc(NC(=O)CN2CCN(c3nc(-c4ccc(F)cc4)cs3)CC2)c(OC)c1	inconclusive [inhibitor, single point]	–
O=C(c1c[nH]c(C(=O)C(Cl)(Cl)Cl)c1)c1ccc(F)cc1F	active: 13 µM	–
O=C(CSc1nc2ccccc2c2nc(-c3ccccc3)nn12)Nc1ccc(F)cc1	active: 14.6 µM	–
c1csc(C2Nc3ccccc3-c3nc4ccccc4n32)c1 (stereo not given)	inconclusive [inhibitor, single point]	–
O=C(Nc1ccc(F)cc1)c1ccc2ncsc2c1	inconclusive [inhibitor, single point]	–
CC(=O)c1cccc(NC(=O)c2cc3nc(C)cc(C)n3n2)c1	inconclusive [inhibitor, partial curve]	–
Cc1ccc(O)c(CN(C)Cc2cc(C)ccc2O)c1	inconclusive [inhibitor, single point]	–
Cc1csc(Cn2c(CN(C)C)nc3ccccc3c2=O)n1	inactive	–
COc1ccc(-c2cc(C(C)=O)c(C)n2CCC(=O)Nc2cccc(C)c2C)cc1	inconclusive [inhibitor, partial curve]	–
COc1ccccc1NC(=O)CCc1nnc2ccc(NCc3ccco3)nn12	inactive	–
COc1ccc(NC(NC(=O)c2ccc(OC)cc2)C(Cl)(Cl)Cl)cc1 (stereo not given)	inconclusive [inhibitor, partial curve]	–
C/C(=N\NC(=S)NC1CCCCC1)c1cccs1	active: 10.3 µM	–
CC1(C)Cc2c(ccc3ccccc23)C(c2cc3ccccc3oc2=O)=N1	inconclusive [inhibitor, partial curve]	–
CC1CCN(C(=O)C(Cc2ccccc2)NS(=O)(=O)c2ccc3c(c2)oc(=O)n3C)CC1 (stereo not given)	inconclusive [inhibitor, single point]	–
CC1=C(C(=O)N2CCOCC2)CC(CC(=O)NCc2cccs2)C(=O)N1CCC1=CCCCC1 (stereo not given)	inconclusive [inhibitor, partial curve]	–
CC(C)c1ccc2[nH]c(O)c(N=NC(=S)NCCc3ccccc3)c2c1	active: 8.2 µM	–
Cc1ccc2cc(C(c3nnnn3C3CCCC3)N(Cc3ccccc3)Cc3ccco3)c(=O)[nH]c2c1 (stereo not given)	inconclusive [inhibitor, single point]	–
CC(=O)Nc1ccc(S(=O)(=O)N(Cc2ccccc2)c2ccccc2)cc1	inconclusive [inhibitor, single point]	–
O=C(CSCc1ccc(Cl)cc1)Nc1cc([N+](=O)[O-])ccc1O	active: 18.4 µM	–
CCOC(=O)N1CCN(C(=O)c2ccc(C)c(S(=O)(=O)Nc3ccccc3)c2)CC1	inconclusive [inhibitor, partial curve, poor fit]	–
Cc1ccc(S(=O)(=O)N2CCN(c3nc(-n4cncn4)nc4ccccc34)CC2)cc1	inconclusive [inhibitor, single point]	–
Cc1cccc(NC(=O)CSc2nc(C)cc(C)c2C(=O)Nc2ccc(Cl)cc2)c1	inconclusive [inhibitor, partial curve]	–
CC1=C(C(=O)N2CCCCCC2)CC(CC(=O)NCc2ccco2)C(=O)N1Cc1ccccc1 (stereo not given)	inactive	–
CCOC(=O)CSC1=N/C(=C\c2ccc(OC)c(OC)c2)C(=O)N1C	inconclusive [inhibitor, single point]	–

SMILES	Potency	activity change, negative = growth inhibition
Cc1ccc(-c2csc(NCCn3c(C(F)(F)F)nc4ccccc43)n2)cc1	inconclusive [inhibitor, single point]	–
COc1ccc(Br)cc1/C=c1\sc2nc(-c3ccco3)nn2c1=O	inconclusive [inhibitor, single point]	–
O=[N+]([O-])c1ccc(N2CCN(S(=O)(=O)c3ccccc3)CC2)cc1NCCN1CCOCC1	inconclusive [inhibitor, single point]	–
CCc1nn2c(=O)cc(COC(=O)c3cccc(NC(=O)COc4ccccc4F)c3)nc2s1	inconclusive [inhibitor, single point]	–
CC(=NNC(=S)N1CCN(C2CCCCCC2)CC1)c1ccccn1	active: 0.0366 µM	–
O=S(=O)(Nc1ccc2c(c1)nc1n2CCOC1)c1ccc(Cl)cc1	active: 13 µM	–
CCc1nnc(SC(CC)C(=O)NCCOC)c2cc3occc3n12 (stereo not given)	inconclusive [inhibitor, single point]	–
COc1c(Br)cc2c(C)c(C(=O)N3CCOCC3)oc2c1Br	inconclusive [inhibitor, single point]	–
Nc1ncnc(NNC(=O)CNC(=O)c2c(F)cccc2Cl)c1[N+](=O)[O-]	inactive	–
CN1CCN(C(=O)c2cnn(-c3ccccc3)c2C2CCN(C(=O)OC(C)(C)C)CC2)CC1	inactive	–
O=C(CNC(=O)C(c1ccccc1)c1ccccc1)OCC(=O)c1cccc2ccccc12	active: 20 µM	–
CCOc1ccccc1N(C)C(=O)c1cc(S(=O)(=O)NCc2ccc(C)cc2)ccc1F	active: 20.6 µM	–
Cc1cc2nc(CSc3ccc(Cl)cc3)cc(=O)n2[nH]1	inconclusive [inhibitor, single point]	–
CCc1cccc(NC(=O)Cn2c(=O)n(Cc3ccccc3)c(=O)c3c(C)c(C(=O)N(C)C)sc32)c1	inconclusive [inhibitor, single point]	–
O=C(Nc1cc(Cl)ccc1-n1cncn1)c1cc(F)c(F)c(F)c1F	inactive	–
COc1ccccc1N1CCN(CC(=O)c2c(C)[nH]c3cc(C)ccc23)CC1	active: 18.4 µM	–
Cc1ccc(CN2C(=O)C(C)Oc3ccccc32)cc1 (stereo not given)	inconclusive [inhibitor, single point]	–
CC(=O)c1sc(NC(=O)C2CCN(c3ncnc4sc(C)c(C)c34)CC2)nc1-c1ccccc1	inconclusive [inhibitor, single point]	–
OCc1ccccc1O	inactive	–
COc1ccc(C(=O)N2CCC(C(=O)N3CCN(c4ccc(OC)cc4)CC3)CC2)cc1	inconclusive [inhibitor, single point]	–
Cc1ccccc1-c1nc(CS(=O)(=O)CC(=O)Nc2c(C)cccc2C)c(C)o1	active: 18.4 µM	–
Cc1ccc(CCNC(=O)Cn2ncc3c(=O)oc4ccccc4c32)cc1	inactive	–
COC(=O)c1ccc2nc(-c3cccc(Br)c3)c(Cc3ccsc3)n2c1	inconclusive [inhibitor, single point]	–
COc1cccc2cc(CC(=O)c3cc(C)ccc3C)c(=O)oc12	inconclusive [inhibitor, single point]	–

SMILES	Potency	activity change, negative = growth inhibition
CCc1ccc2c(c1)c(=O)c(S(=O)(=O)c1ccccc1)cn2CC(=O)Nc1cc(C)ccc1C	inactive	–
Cc1ccccc1OCC(=O)Nc1ccc2c(c1)C(=O)c1ccccc1C2=O	inactive	–
COc1ccc(OC)c(S(=O)(=O)N2CCC3(CC2)OCCN3S(=O)(=O)c2cccs2)c1	inconclusive [inhibitor, single point]	–
CCOC(=O)N/N=C\c1ccc([N+](=O)[O-])o1	active: 22.4 µM	–
COc1ccc(OC)c(NC(=O)c2ccc3c(=O)n(CCc4ccccc4)c(=S)[nH]c3c2)c1	inconclusive [inhibitor, single point]	–
O=S1(=O)N=C(SCCO)c2ccccc21	inconclusive [inhibitor, partial curve, poor fit]	–
Cc1cccc(-c2nc3c4ccccc4n(CC(=O)Nc4cccc(F)c4)c(=O)n3n2)c1	inconclusive [inhibitor, single point]	–
O=c1oc2cc(O[C@@H]3OC[C@@H](O)[C@H](O)[C@H]3O)ccc2c2ccccc12	inactive	–
Cc1ccc(C)c(OCc2cc(C(=O)N3C[C@@H](C)O[C@@H](C)C3)no2)c1	inconclusive [inhibitor, single point]	–
Cc1noc(C)c1C(=O)OCC(=O)Nc1ccccc1SCC#N	inactive	–
CCOC(=O)c1c(NC(=O)Cc2cccs2)sc(C(=O)NC2CCCCC2)c1C	active: 16.4 µM	–
O=C(CCCN1C(=O)C(c2ccccc2)Oc2cccnc21)NCc1ccccc1Cl (stereo not given)	inconclusive [inhibitor, single point]	–
N#Cc1ccc(NC(=O)c2sc3cc(C(F)(F)F)cnc3c2-c2cccs2)cc1	–	inconclusive: -28.7% [inhibitor]
O=C(N/N=C/c1ccccc1)c1n[nH]c2c1CCCC2	inconclusive [inhibitor, single point]	–
Cc1ccc(C(=O)N2CCN(S(=O)(=O)c3ccc(C(C)C)cc3)CC2)s1	inconclusive [inhibitor, single point]	–
O=C(COC(=O)c1nc(Cl)ccc1Cl)c1ccccc1Cl	inactive	–
C=CCN(C(=O)CCC(=O)O)C1CC(=O)N(c2ccc(OCCC)cc2)C1=O (stereo not given)	active: 25.9 µM	–
CC(=O)C[C@H]1c2cc(C(F)(F)F)ccc2S(=O)(=O)N1C1CCCCC1	active: 20.6 µM	–
CC(C)C[C@H]1CN=C(Nc2ccccc2)N1CCC1CCCC1	active: 23.1 µM	–
CC(C)(C)OC(=O)N1CCC(c2c(C(=O)N3CCN(c4ccccc4F)CC3)cnn2C(C)(C)C)CC1	inconclusive [inhibitor, single point]	–
N#CCCN(C(=O)COC(=O)CCc1c[nH]c2ccccc12)c1ccccc1	inactive	–
C=CCOc1cccc(C2/C(=C(\O)c3ccc4c(c3)OCCO4)C(=O)C(=O)N2CCN2CCOCC2)c1 (stereo not given)	inactive	–
